First the molecules themselves.
B1: LINE1-mini (parent)
chain: GGCAGAGCUCAACACAGCGUGGCAAAGUGGCUGUGGCUAGACUGCC

The source gives no read counts; variants with many changes may rest on few reads.

In this data set the parent is B1. The data set is described as follows: self-cleavage, relative activity (ratio to wild type); higher = more cleavage; in vitro, sequencing; the parent is a self-cleaving ribozyme.
For the variant GCCAGAGCUCAACGCAGCGAGGCAAAGUGGCUGUGGCUAGACUGCC [G2C A14G U20A], the self-cleavage came to 0.05.
In the case of GCCAGAGAUCAACAAAGCGUGGCAAAGUGGCUGUGGCUAUACUGCC [G2C C8A C15A G40U] it was 0.03; in that of GCCAGAGCUCAACACAGCGUGGCAAUUUGGCUGUGGCUAGACUGCG [G2C A26U G27U C46G], 0.09; in that of GCCAGAGCUCAACACUGCGUGGCACAUUGGCUGUGGCUAGAUUGCC [G2C A16U A25C G27U C42U], 0.12.
For GCCAGAGGUCAACACAGCGGGGCAAAGUGGCUUUGGCUAGACUGCC [G2C C8G U20G G33U], the self-cleavage came out at 0.19.
In the case of GCCAGAGCUCAACACCGCGUGGCAAAGUGGCUGUGGUUAGACUGCC [G2C A16C C37U] it was 0.28.
Consider GCCAGAGCUCAACACGGCGUGGUAAAGUGGCUGUGGCUAGACUGCC [G2C A16G C23U], for which the self-cleavage came out at 0.02.
As to GCUAGAGCUCAACACAGAGUGGCAAAGUGGCUGUGGCUAGACUGCC [G2C C3U C18A], the self-cleavage was determined as 0.08.
In the case of GCUAGAGCUCGUUACAGCGUGGCAAAGUGGCUGUGGCUAGACUGCC [G2C C3U A11G A12U C13U] it was 0.03; in that of GCGAGAGCUCAACACAGCGUGGCAAAGUGGCCGCGGCUAGACUGCC [G2C C3G U32C U34C], 0.04.
In the case of GCCAGAGCUCAACACCGCGUUGCAAAGUGGCUGUGCCUAGACUGCC [G2C A16C G21U G36C] it was 0.03; in that of GCAAGAGCUAAACACGGCGUGGCAAAGUGGCUGGGGCUAGACUGCC [G2C C3A C10A A16G U34G], 0.02.
For GCAAGAGCUUUACACAGCGUGGCAAAGUGGCUGUGGCUAGACUGCC [G2C C3A C10U A11U] the value was 0.01; for GCCAGAGAUAAACACAGCGUGGCAAAGUGGCUGUGGCUAGACUGCC [G2C C8A C10A], 0.01.
Turning to GCCAGAGAUCCACACAGCGUGGCAAAGUGGCUGUGGCGAGAGUGCC [G2C C8A A11C U38G C42G], the self-cleavage worked out at 0.01.
For GCACGAGCUCAACACAGCGUGGCAAAGUGGCUGUGGCUAGACUGCC [G2C C3A A4C] the value was 0.07.
For GCCAGAGCUCAACACAGCGUGGCCAAUUGGCUGUGGCUAGCCUGCC [G2C A24C G27U A41C] the value was 0.04; for GCCAGAGCUCAACACGGCCUGGCAAAGUGGCUGUGGCUAGACUGCC [G2C A16G G19C], 0.04; for GCCAGAGCUCAACACAGCGUGGCAACGUGGCGGUGGCUAGAAUGCC [G2C A26C U32G C42A], 0.05.
For GCCAGAGCUCAACACUGCGUGGCAAAGUGGCUGUGGCUAUACUGCC [G2C A16U G40U] the value was 0.03; for GCAAUAGCUCAACACAGCGUGGCACAGUGGCUGUGGCUAGACUGCC [G2C C3A G5U A25C], 0.03; for GCCAGAGGUCAACACAGCCUGGCAAAGUGGGUGUGGCUCGACUGCU [G2C C8G G19C C31G A39C C46U], 0.08.
With GCCAGAGAUCAACACAGCGUCGCAAAGUGGCUGUGGCUAGACUGCC [G2C C8A G21C], the self-cleavage turned out to be 0.16.
In the case of GCCAGAGGUCAACACAGCGUGGCAAAGUGGCAGUCCCUAGACUGCC [G2C C8G U32A G35C G36C] it was 0.01; in that of GCGAAAGCUCAGCACAGCGCUGCAAACUGGCUGUGGCUAGACUGCC [G2C C3G G5A A12G U20C G21U G27C], 0.07; in that of GCCAGAGCUCAACGCAGCGUGGCAAAGUGGCUGUUGCUCGACUGCC [G2C A14G G35U A39C], 0.07.
In the case of GCCAGAGAUCAACACAGCGUGGCAAAGUGGCUGUGGCUCGACUGCC [G2C C8A A39C] it was 0.04; in that of GCCAGAGCUCAACGCAGCGUGGCAAAGUGGCUGUGGCUAGACUGCG [G2C A14G C46G], 0.48; in that of GCCAGAGGUCAACACAGCAUGGUAAAGCGGCUGUGGCUGGACUGCC [G2C C8G G19A C23U U28C A39G], 0.01.
For GCCAGAGCUCAACACUGCGUUGCAAAGUGGCUGUGGCUAGGCUGCC [G2C A16U G21U A41G] the value was 0.02; for GCUAGAGCUCAACACAGCGUUGCAAAGUGGCUGUGUCUAGACUGCC [G2C C3U G21U G36U], 0.09.
Regarding GCCAGAGCUCAACACUGCGUGGCAAAGUGGCUUUGGCUAGACUGCC [G2C A16U G33U], the self-cleavage was 0.03.
As for GCGAGAGCUCAACACAGCGUGGUAAAGUGGCUGUGGCUAGACUGCC [G2C C3G C23U], the self-cleavage was 0.09.
Turning to GCUAGAGCUCAACACAGCGUGGAAAAGUGGCUGUGGCUAGACUGCC [G2C C3U C23A], the self-cleavage is 0.17.
In the case of GCUGGAGCUCAACACAGCGUGGCAAAGUGGCUGUGGCUGGACUGCC [G2C C3U A4G A39G] it was 0.02; in that of GCCAGAGCUCAACACAGCGUGGCAAGGUGGCCGUUGCAAGACUGCC [G2C A26G U32C G35U U38A], 0.04.
In the case of GCAAGAGCUCAACACAGCGUGGCAAAUUGGCUGUGGCUAGACUGCC [G2C C3A G27U], the self-cleavage came to 0.01.
Turning to GCUAAAGCUCAACACAGCGUGGCCAAGUGGCUGUGGGUAGACUUCC [G2C C3U G5A A24C C37G G44U], the self-cleavage was 0.07.
For GCGAGAGCUAAGCACAGCGUGGCAAAGUGGCUAUGGCUAGACUGCC [G2C C3G C10A A12G G33A] the value was 0.03; for GCGAGAGCUCAACACAGCGUGGCAAGGUGGCUGUGACUGGAAUGCC [G2C C3G A26G G36A A39G C42A], 0.05.
In the case of GCUAAAGCUCAACACAGCGUGGCAAAGUGGCUGUGGCUAGAUUGCC [G2C C3U G5A C42U] it was 0.11.
For the variant GCCAGAGAUCAUCACAGGGUGGCAAAGUGGCUGUGACUAGACUGCC [G2C C8A A12U C18G G36A], the self-cleavage came out at 0.03.
In the case of GCAAGAGCCCAACACAGCGUGGCAAAGUGGCUGUGGCUAGACUGCC [G2C C3A U9C] it was 0.05; in that of GCCAGAGCUCAACCCAGCGUGGCAAAGUGGCUGUGUCUAGGCUGCC [G2C A14C G36U A41G], 0.56.
For GCGAGAGCUAAACACAGCGUGGCAAAGUGGCUGUGGCCAGACUGCC [G2C C3G C10A U38C] the value was 0.02; for GCAAGACCUCAACAAAGCGUGGCAAAGUGGCUGUCGCUAGACUGAC [G2C C3A G7C C15A G35C C45A], 0.32.
For GCGAGAGCUCAAUAAAGCGUGGCAAAGUGGCCGUGGCUAGACUGCC [G2C C3G C13U C15A U32C] the value was 0.02; for GCAAGAGCUCAACACAGUGUGGCAAAGUGGCUGUGGCUAGACUGCC [G2C C3A C18U], 0.09; for GCCAGAGCUCAACACUGCGUGGCAAAGUGGCUGUGUCUAGACUGCC [G2C A16U G36U], 0.01.
As to GCCAGAGCUCAACACAGCGUGGCAAAGUGGCUGUGGCUAGUGUGCA [G2C A41U C42G C46A], the self-cleavage stood at 0.04.
For GCCAGAGCUCAACACAGCGUGGCCAAGUGACUGUGGCUAGACUGCC [G2C A24C G30A] the value was 0.05; for GCGAGUGCACAACUCAGCGUGGCAAAGUGGCGGUGGCUUGACUGCC [G2C C3G A6U U9A A14U U32G A39U], 1.45; for GCCAGAGAUCAACACAGCGUGGCACAUUGGCUGUGGCUAGACUGCC [G2C C8A A25C G27U], 0.11.
In the case of GCCAGAGAUCAACACAGCGUGGCAAAGUGGCUGUGGCUAGAAUGCC [G2C C8A C42A] it was 0.29; in that of GCCAGAGCUCAACGCAGAGUGGCAAAGUGGUUGUGGCUGGACUGCC [G2C A14G C18A C31U A39G], 0.04.
For GCAAGAGCUCCACACAGCAUGGCAAAGUGGCUGUGGCUAGACUGCC [G2C C3A A11C G19A] the value was 0.16.

For the origin of these results see the RNAGym collection of RNA variant scans (doi:10.7554/elife.90254).
